From paper PMC5823869

Tests used:
[1] = target: YAP2L-WT (YAP2γ), FLAG- or HA-tagged (human) (UniProt P46937); test: non-reducing SDS-PAGE with immunoblot; cell lysates (15 µg of transfected HEK293; 30 µg of H460 for endogenous TAZ) in SDS sample buffer without DTT, 3 min at 60 °C; blot with anti-FLAG, anti-HA or anti-TAZ; series with increasing DTT run beside
[2] = target: purified His-tagged YAP2L-WT (human) (UniProt P46937); test: non-reducing SDS-PAGE with immunoblot; 1 µg of purified His-YAP2L or GST-TAZ protein, sample buffer without DTT; blot with anti-His-HRP or anti-YAP, or Ponceau-S staining

| Substance | stoichiometry N [1] | stoichiometry N [2] |
| --- | --- | --- |
| YAP2L-WT (YAP2γ), FLAG- or HA-tagged (a stretch of the chain, sequence not shown) (natural protein; other documents disagree on this pair) | 2 | – |
| purified His-tagged YAP2L-WT (a stretch of the chain, sequence not shown) (natural protein; other documents disagree on this pair) | – | 2 and 3 and 4 |

Where “and” joins values, the source holds several entries; their conditions need not be identical. Identical values can stand only once.
